In brackets after ≈: the same amount, converted by molar mass. Counter-ions that a name gives are not always drawn.
Legend:
[1] = PAMPA, pH 7.4
[2] = in vitro; conditions: PAMPA, pH 7.4
[3] = molecular target: galectin-7 (Homo sapiens, UniProt P47929)
[4] = human plasma, 1 μM, 37 °C; for Plasma stability, remaining percentage at 0 h: 0 h (reference time point)
[5] = physchem; conditions: pH 7.4, aqueous buffer, kinetic from dmso stock
[6] = physchem; conditions: pH 7.4
[7] = physchem; conditions: buffer
[8] = in vitro; conditions: human, plasma
[9] = in vitro; conditions: CD1, mouse, microsomes; for half-life: pH 7.4; for microsomal CLint at 1 µM: mouse liver microsomes, 45 minutes
[10] = in vitro; conditions: human, microsomes; for half-life: pH 7.4; for microsomal CLint at 1 µM: human liver microsomes, 45 minutes
[11] = molecular target: galectin-3 (Homo sapiens, UniProt P17931)
Chain of galectin-3 (P17931 whole entry): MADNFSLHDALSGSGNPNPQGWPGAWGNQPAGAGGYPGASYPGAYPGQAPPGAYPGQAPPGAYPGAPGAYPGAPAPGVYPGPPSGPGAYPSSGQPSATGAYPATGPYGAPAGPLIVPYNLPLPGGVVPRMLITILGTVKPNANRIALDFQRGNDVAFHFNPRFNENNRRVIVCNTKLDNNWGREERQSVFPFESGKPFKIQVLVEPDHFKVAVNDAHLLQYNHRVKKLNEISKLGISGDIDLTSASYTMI

[12] = molecular target: galectin-1 (Homo sapiens, UniProt P09382)
Chain of galectin-1 (P09382 whole entry): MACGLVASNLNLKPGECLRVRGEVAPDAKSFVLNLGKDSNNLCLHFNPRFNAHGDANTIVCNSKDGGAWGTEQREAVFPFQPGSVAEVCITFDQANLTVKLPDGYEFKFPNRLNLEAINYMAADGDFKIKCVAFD

[13] = molecular target: galectin-4N (Homo sapiens, UniProt P56470)
Chain of galectin-4N (P56470 19-150): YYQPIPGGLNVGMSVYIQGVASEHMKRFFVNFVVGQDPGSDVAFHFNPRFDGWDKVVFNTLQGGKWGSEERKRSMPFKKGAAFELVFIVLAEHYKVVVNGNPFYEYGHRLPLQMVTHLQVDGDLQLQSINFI

[14] = molecular target: galectin-4C (Homo sapiens, UniProt P56470); experiment: biochemical
Chain of galectin-4C (P56470 194-323): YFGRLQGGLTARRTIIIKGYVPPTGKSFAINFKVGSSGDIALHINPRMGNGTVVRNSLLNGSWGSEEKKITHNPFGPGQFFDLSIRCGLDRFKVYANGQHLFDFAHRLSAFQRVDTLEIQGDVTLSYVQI

[15] = molecular target: galectin-9C (Homo sapiens, UniProt O00182)
Chain of galectin-9C (O00182 227-355): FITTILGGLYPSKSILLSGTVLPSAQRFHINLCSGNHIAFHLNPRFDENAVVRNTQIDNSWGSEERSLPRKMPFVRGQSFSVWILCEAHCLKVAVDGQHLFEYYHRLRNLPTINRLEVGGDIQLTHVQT

[16] = molecular target: galectin-9N (Homo sapiens, UniProt O00182)
Chain of galectin-9N (O00182 17-148): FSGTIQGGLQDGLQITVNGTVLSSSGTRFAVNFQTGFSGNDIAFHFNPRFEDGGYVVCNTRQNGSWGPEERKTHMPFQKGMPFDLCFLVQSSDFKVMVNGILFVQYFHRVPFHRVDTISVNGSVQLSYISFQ

[17] = system: Caco-2; conditions: cited from earlier work
[18] = cited from earlier work
[19] = pH 7.4, CLint (mouse), first incubation
[20] = pH 7.4, CLint (mouse), second incubation
[21] = pH 7.4, CLint (human), first incubation
[22] = pH 7.4, CLint (human), second incubation

Chain of galectin-7 (P47929 whole entry): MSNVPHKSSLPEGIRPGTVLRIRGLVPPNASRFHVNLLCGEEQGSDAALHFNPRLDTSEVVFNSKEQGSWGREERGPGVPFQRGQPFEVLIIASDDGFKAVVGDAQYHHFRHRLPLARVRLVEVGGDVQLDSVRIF

SMILES	Kd galectin 7 [3]	logD [6]	remaining at 120 h ([7]; pH 4)	remaining at 120 h ([7]; pH 9.5)	half-life [8]	half-life [9]	microsomal CLint [9, 19]	microsomal CLint [9, 20]	microsomal CLint ([9]; pH 7.4, CLint Average (mouse))	half-life [10]	microsomal CLint [10, 22]	microsomal CLint ([10]; pH 7.4, CLint Average (human))	microsomal CLint [10, 21]	other results
N=C(N)NC(=O)c1nc(Cl)c(N)nc1N [Amiloride HCl]	–	–	–	–	–	–	–	–	–	–	–	–	–	Permeability [1]: 0.0 ± 0.10 10-6 cm/s
Cc1cc(=O)n(-c2ccccc2)n1C [Antipyrine, reference compound]	–	–	–	–	–	–	–	–	–	–	–	–	–	Papp [2]: 8.9 ± 0.85 ×10⁻⁶ cm/s
O=c1c2ccccc2cnn1CO[C@@H]1C=CO[C@H](CO)[C@@H]1O [Compound 1]	N.B. ^b	1	96%	> 99%	> 16 h	> 2.33 h	< 10 µL/min/mg	< 10 µL/min/mg	< 10 µL/min/mg	> 2.33 h	< 10 µL/min/mg	< 10 µL/min/mg	–	Plasma stability, remaining percentage at 2 h ([4]; relative to 0 h): 86%; Plasma stability, remaining percentage at 4 h ([4]; relative to 0 h): 89%; solubility [5]: > 95 µM; microsomal CLint at 1 µM [10, 21]: < 10 µL/min/mg
O=c1c2ccccc2c(-c2ccccc2)nn1CO[C@@H]1C=CO[C@H](CO)[C@@H]1O [Compound 2]	N.B. ^b	1.7	> 99%	> 99%	> 16 h	0.283 h	–	–	85 µL/min/mg	> 2.33 h	–	< 10 µL/min/mg	–	Kd galectin 3 [11]: N.B. ^b; Plasma stability, remaining percentage at 0 h [4]: 100%; microsomal CLint at 1 µM [9, 19]: 78 µL/min/mg; microsomal CLint at 1 µM [9, 20]: 91 µL/min/mg; microsomal CLint at 1 µM [10, 21]: < 10 µL/min/mg; microsomal CLint at 1 µM [10, 22]: < 10 µL/min/mg
O=c1c2ccccc2c(-c2ccc(F)cc2)nn1CO[C@@H]1C=CO[C@H](CO)[C@@H]1O [Compound 6]	N.B. ^b	1.7	97%	–	–	0.45 h	50 µL/min/mg	51 µL/min/mg	51 µL/min/mg	> 2.33 h	< 10 µL/min/mg	–	< 10 µL/min/mg	Kd galectin 1 [12]: N.B. ^b; Kd galectin 4N [13]: N.B. ^b; Plasma stability, remaining percentage at 2 h ([4]; relative to 0 h): 81%; Plasma stability, remaining percentage at 8 h ([4]; relative to 0 h): 86%; Plasma stability, remaining percentage at […] ([4]; relative to 0 h): 100%; solubility at 24 h [5]: 94 µM (≈ 37.4 µg/mL); remaining at 120 h, 100 µM ([7]; pH 9.5): > 99%; half-life at 1 µM [8]: > 16 h; microsomal CLint at 1 µM ([10]; pH 7.4, CLint Average (human)): < 10 µL/min/mg; Papp [2]: 6.7 ± 1.55 ×10⁻⁶ cm/s; Kd [14]: 1500 ± 170 µM
O=c1c2ccccc2c(-c2ccc(Cl)cc2)nn1CO[C@@H]1C=CO[C@H](CO)[C@@H]1O [Compound 7]	N.B. ^b	2.3	–	99%	> 16 h	0.383 h	56 µL/min/mg	65 µL/min/mg	61 µL/min/mg	–	–	10 µL/min/mg	12 µL/min/mg	Kd galectin 1 [12]: N.B. ^b; Kd galectin 3 [11]: N.B. ^b; Kd galectin 4N [13]: N.B. ^b; Kd galectin 9C [15]: N.B. ^b; Kd galectin 9N [16]: N.B. ^b; Plasma stability, remaining percentage at 2 h ([4]; relative to 0 h): 95%; Plasma stability, remaining percentage at 4 h ([4]; relative to 0 h): 96%; solubility [5]: 63 µM (≈ 26.1 µg/mL); remaining at 120 h, 100 µM ([7]; pH 4): 97%; microsomal CLint at 1 µM [10, 22]: < 10 µL/min/mg; Kd [14]: 1600 ± 200 µM
O=c1c2ccccc2c(-c2ccc(Cl)c(Cl)c2)nn1CO[C@@H]1C=CO[C@H](CO)[C@@H]1O [Compound 8]	–	–	–	–	–	–	–	–	–	–	–	–	–	Kd galectin 1 [12]: N.B. ^b; Kd galectin 3 [11]: N.B. ^b; Kd galectin 9C [15]: N.B. ^b; Kd galectin 9N [16]: N.B. ^b
Cc1ccc(-c2nn(CO[C@@H]3C=CO[C@H](CO)[C@@H]3O)c(=O)c3ccccc23)cc1 [Compound 9]	N.B. ^b	2.5	–	> 99%	7.6 h	0.167 h	–	–	137 µL/min/mg	> 2.33 h	< 10 µL/min/mg	–	–	Kd galectin 9C [15]: N.B. ^b; Kd galectin 9N [16]: N.B. ^b; Plasma stability, remaining percentage at 0 h [4]: 100%; Plasma stability, remaining percentage at 1 h ([4]; relative to 0 h): 88%; solubility at 24 h [5]: > 95 µM; remaining at 120 h, 100 µM ([7]; pH 4): 96%; microsomal CLint at 1 µM [9, 19]: 136 µL/min/mg; microsomal CLint at 1 µM [9, 20]: 138 µL/min/mg; microsomal CLint at 1 µM [10, 21]: < 10 µL/min/mg; microsomal CLint at 1 µM ([10]; pH 7.4, CLint Average (human)): < 10 µL/min/mg
O=c1c2ccccc2c(-c2ccc(Br)cc2)nn1CO[C@@H]1C=CO[C@H](CO)[C@@H]1O [Compound 10]	–	2.2	91%	95%	> 16 h	0.6 h	38 µL/min/mg	39 µL/min/mg	39 µL/min/mg	2.1 h	11 µL/min/mg	11 µL/min/mg	11 µL/min/mg	Plasma stability, remaining percentage at 4 h ([4]; relative to 0 h): 84%; solubility [5]: 42 µM (≈ 19.3 µg/mL); Papp [2]: 7.4 ± 1.5 ×10⁻⁶ cm/s; Kd [14]: 1400 ± 130 µM
C[C@@H]1C[C@H]2[C@@H]3CCC4=CC(=O)C=C[C@]4(C)[C@@]3(F)[C@@H](O)C[C@]2(C)[C@@]1(O)C(=O)CO [Dexamethasone]	–	–	–	–	–	–	–	–	–	–	–	–	–	Caco-2 [17]: 13.4 ± 1.3 ×10⁻⁶ cm/s
COc1ccc2c(c1)[C@]13CCCC[C@@H]1[C@H](C2)N(C)CC3 [Dextromethorphan, reference compound]	–	–	–	–	–	–	–	–	–	1.78 h	–	13 µL/min/mg	13 µL/min/mg	Reference clearance values (human) [18]: 25 ± 10 µL/min/mg
CC(C)(C)NCC(O)COc1cccc2c1CC(O)C(O)C2 (centres unmarked) [Nadolol]	–	–	–	–	–	–	–	–	–	–	–	–	–	Caco-2 [17]: 1.7 ± 0.4 ×10⁻⁶ cm/s

Reference: PMC11318003 (ACS Medicinal Chemistry Letters, 2024)
